# Reference: the supplement of paper PMC8728848
# Some of the results follow.
# B1: HHL-1 (Homo sapiens), P07306 (protein)
# chain: TKEYQDLQHLDNEESDHHQLRKGPPPPQPLLQRLCSGPRLLLLSLGLSLLLLVVVCVIGSQNSQLQEELRGLRETFSNFTASTEAQVKGLSTQGGNVGRKMKSLESQLEKQQKDLSEDHSSLLLHVKQFVSDLRSLSCQMAALQGNGSERTCCPVNWVEHERSCYWFSRSGKAWADADNYCRLEDAHLVVVTSWEEQKFVQHHIGPVNTWMGLHDQNGPWKWVDGTDYETGFKNWRPEQPDDWYGHGLGGGEDCAHFTDDGRWNDDVCQRPYRWVCETELDKASQEPPLL
# Columns and labels:
# Assay in all cases: glycan array binding signal (z-score within array); higher = stronger binding
# Details in all cases: glycan notation: IUPAC condensed, linker removed
# [1] = biological target: GlcNAc(b1-4)GlcNAc
# In short: (§1)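 Glycan array binding is given as a within-array Z-score, which can be read as non-binding when negative. The arrays, 3228 of them, came from the Consortium for Functional Glycomics database and were retained only where the protein sequence was available. Z-scores were averaged across arrays of the same protein sequence at different concentrations or buffers and across linkers.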
# [2] = biological target: GlcNAc(b1-4)GlcNAc(b1-4)GlcNAc
# In short: as §1
# [3] = biological target: GlcNAc(b1-4)GlcNAc(b1-4)GlcNAc(b1-4)GlcNAc(b1-4)GlcNAc
# In short: as §1
# [4] = biological target: GlcNAc(b1-4)GlcNAc(b1-4)GlcNAc(b1-4)GlcNAc(b1-4)GlcNAc(b1-4)GlcNAc
# In short: as §1
# [5] = biological target: GlcNAc(b1-4)[GlcNAc(b1-6)]GalNAc
# In short: as §1
# [6] = biological target: GlcNAc(b1-6)Gal(b1-4)GlcNAc
# In short: as §1
# [7] = biological target: GlcNAc(b1-6)GalNAc
# In short: as §1
# [8] = biological target: GlcNAc3Prop(b1-4)GlcNAc
# In short: as §1
# [9] = biological target: GlcNAc6S(b1-3)Gal(b1-4)GlcNAc
# In short: as §1
# [10] = biological target: Kdn(a2-3)Gal(b1-3)GalNAc
# In short: as §1
# [11] = biological target: Kdn(a2-3)Gal(b1-3)GlcNAc
# In short: as §1
# [12] = biological target: Kdn(a2-3)Gal(b1-4)Glc
# In short: as §1
# [13] = biological target: Kdn(a2-3)Gal(b1-4)GlcNAc
# In short: as §1
# [14] = biological target: Kdn(a2-3)Gal(b1-4)[Fuc(a1-3)]GlcNAc
# In short: as §1
# [15] = biological target: Kdn(a2-6)Gal(b1-4)GlcNAc
# In short: as §1
# [16] = biological target: Man(a1-2)Man(a1-2)Man(a1-3)Man
# In short: as §1
# [17] = biological target: Man(a1-2)Man(a1-2)Man(a1-6)[Man(a1-3)]Man
# In short: as §1
# [18] = biological target: Man(a1-2)Man(a1-3)Man
# In short: as §1
# [19] = biological target: Man(a1-2)Man(a1-3)[Man(a1-2)Man(a1-6)]Man
# In short: as §1
# [20] = biological target: Man(a1-2)Man(a1-3)[Man(a1-2)Man(a1-6)]Man(a1-6)[Man(a1-2)Man(a1-2)Man(a1-3)]Man
# In short: as §1
# [21] = biological target: Man(a1-2)Man(a1-3)[Man(a1-2)Man(a1-6)]Man(a1-6)[Man(a1-2)Man(a1-2)Man(a1-3)]Man(b1-4)GlcNAc(b1-4)GlcNAc
# In short: as §1
# [22] = biological target: Man(a1-2)Man(a1-3)[Man(a1-6)]Man(a1-6)[Man(a1-2)Man(a1-3)]Man(b1-4)GlcNAc(b1-4)GlcNAc
# In short: as §1
# [23] = biological target: Man(a1-2)Man(a1-6)[Man(a1-3)]Man(a1-6)[Man(a1-2)Man(a1-2)Man(a1-3)]Man
# In short: as §1
# [24] = biological target: Man(a1-2)Man(a1-6)[Man(a1-3)]Man(a1-6)[Man(a1-2)Man(a1-2)Man(a1-3)]Man(b1-4)GlcNAc(b1-4)GlcNAc
# In short: as §1
# [25] = biological target: Man(a1-3)[Man(a1-6)]Man
# In short: as §1
# [26] = biological target: Man(a1-3)[Man(a1-6)]Man(a1-6)[Man(a1-2)Man(a1-3)]Man(b1-4)GlcNAc(b1-4)GlcNAc
# In short: as §1
# [27] = biological target: Man(a1-3)[Man(a1-6)]Man(a1-6)[Man(a1-3)]Man
# In short: as §1
# [28] = biological target: Man(a1-3)[Man(a1-6)]Man(a1-6)[Man(a1-3)]Man(b1-4)GlcNAc(b1-4)GlcNAc
# In short: as §1
binder,measurement,setting,value
B1,glycan array binding signal (z-score),[1],-0.421
same,glycan array binding signal (z-score),[2],-0.434
same,glycan array binding signal (z-score),[3],-0.149
same,glycan array binding signal (z-score),[4],-0.52
same,glycan array binding signal (z-score),[5],-0.467
same,glycan array binding signal (z-score),[6],0.054
same,glycan array binding signal (z-score),[7],7.59
same,glycan array binding signal (z-score),[8],-0.427
same,glycan array binding signal (z-score),[9],-0.421
same,glycan array binding signal (z-score),[10],-0.48
same,glycan array binding signal (z-score),[11],-0.538
same,glycan array binding signal (z-score),[12],-0.536
same,glycan array binding signal (z-score),[13],0.051
same,glycan array binding signal (z-score),[14],0.447
same,glycan array binding signal (z-score),[15],0.024
same,glycan array binding signal (z-score),[16],-0.548
same,glycan array binding signal (z-score),[17],-0.116
same,glycan array binding signal (z-score),[18],-0.555
same,glycan array binding signal (z-score),[19],0.449
same,glycan array binding signal (z-score),[20],-0.537
same,glycan array binding signal (z-score),[21],-0.069
same,glycan array binding signal (z-score),[22],0.46
same,glycan array binding signal (z-score),[23],0.162
same,glycan array binding signal (z-score),[24],-0.43
same,glycan array binding signal (z-score),[25],-0.472
same,glycan array binding signal (z-score),[26],-0.485
same,glycan array binding signal (z-score),[27],-0.53
same,glycan array binding signal (z-score),[28],-0.011
